Test results from the supplement of paper PMC8728848.
The other results are listed elsewhere or left out.

Columns and labels:
Assay in all cases: glycan array binding signal (z-score within array); higher = stronger binding
Conditions in all cases: glycan notation: IUPAC condensed, linker removed
[1] = target: Gal3S(b1-4)Glc
Method in brief: (§1)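 Glycan array data came from 3228 arrays in the Consortium for Functional Glycomics database, and only arrays with an available protein sequence were kept. Glycan names were put into IUPAC-condensed notation, and columns mapping to the same glycan were averaged. The binding signal is a within-array Z-score, averaged across arrays of one protein sequence run at different concentrations or buffers and across linkers. A negative Z-score can be read as non-binding.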

[2] = target: Gal3S(b1-4)Glc6S
Method in brief: as §1

[3] = target: Gal3S(b1-4)GlcNAc
Method in brief: as §1

[4] = target: Gal3S(b1-4)[Fuc(a1-3)]Glc6S
Method in brief: as §1

[5] = target: Gal3S(b1-4)[Fuc(a1-3)]GlcNAc
Method in brief: as §1

[6] = target: Gal3S(b1-4)[Fuc(a1-3)]GlcNAc6S
Method in brief: as §1

[7] = target: Gal3S4S(b1-4)GlcNAc
Method in brief: as §1

[8] = target: Gal3S6S(b1-4)GlcNAc
Method in brief: as §1

[9] = target: Gal3S6S(b1-4)GlcNAc6S
Method in brief: as §1

[10] = target: Gal4S(b1-4)GlcNAc
Method in brief: as §1

[11] = target: Gal4S6S(b1-4)GlcNAc
Method in brief: as §1

[12] = target: Gal6P(b1-4)GlcNAc
Method in brief: as §1

[13] = target: Gal6S(b1-3)GlcNAc
Method in brief: as §1

[14] = target: Gal6S(b1-3)GlcNAc6S
Method in brief: as §1

[15] = target: Gal6S(b1-4)Glc
Method in brief: as §1

[16] = target: Gal6S(b1-4)Glc6S
Method in brief: as §1

[17] = target: Gal6S(b1-4)GlcNAc
Method in brief: as §1

[18] = target: Gal6S(b1-4)GlcNAc6S
Method in brief: as §1

[19] = target: GalNAc(a1-3)Gal
Method in brief: as §1

[20] = target: GalNAc(a1-3)GalNAc
Method in brief: as §1

[21] = target: GalNAc(a1-3)GalNAc(b1-3)Gal(a1-4)Gal(b1-4)Glc
Method in brief: as §1

[22] = target: GalNAc(a1-3)GalNAc(b1-3)Gal(a1-4)Gal(b1-4)GlcNAc
Method in brief: as §1

[23] = target: GalNAc(b1-3)Gal
Method in brief: as §1

[24] = target: GalNAc(b1-3)Gal(a1-4)Gal(b1-4)GlcNAc
Method in brief: as §1

[25] = target: GalNAc(b1-3)Gal(a1-4)Gal(b1-4)GlcNAc(b1-3)Gal(b1-4)Glc
Method in brief: as §1

[26] = target: GalNAc(b1-3)Gal(a1-6)Gal(b1-4)Glc
Method in brief: as §1

[27] = target: GalNAc(b1-3)GalNAc
Method in brief: as §1

[28] = target: GalNAc(b1-3)GlcNAc
Method in brief: as §1

[29] = target: GalNAc(b1-4)Gal(b1-4)Glc
Method in brief: as §1

[30] = target: GalNAc(b1-4)GlcNAc
Method in brief: as §1

[31] = target: GalNAc(b1-4)GlcNAc(b1-2)Man
Method in brief: as §1

[32] = target: GalNAc(b1-4)GlcNAc(b1-2)Man(a1-3)[GalNAc(b1-4)GlcNAc(b1-2)Man(a1-6)]Man(b1-4)GlcNAc(b1-4)GlcNAc
Method in brief: as §1

[33] = target: GalNAc(b1-4)GlcNAc(b1-3)GalNAc(b1-4)GlcNAc
Method in brief: as §1

[34] = target: GalNAc(b1-4)GlcNAc6S
Method in brief: as §1

[35] = target: GalNAc(b1-6)GalNAc
Method in brief: as §1

[36] = target: GalNAc3S(b1-4)GlcNAc
Method in brief: as §1

[37] = target: GalNAc3S(b1-4)GlcNAc3S
Method in brief: as §1

[38] = target: GalNAc3S(b1-4)[Fuc(a1-3)]GlcNAc
Method in brief: as §1

[39] = target: GalNAc4S6S(b1-4)GlcNAc
Method in brief: as §1

[40] = target: GalNAc6S(b1-4)GlcNAc
Method in brief: as §1

[41] = target: Glc(a1-4)Glc
Method in brief: as §1

[42] = target: Glc(a1-4)Glc(a1-4)Glc(a1-4)Glc
Method in brief: as §1

[43] = target: Glc(a1-6)Glc(a1-6)Glc
Method in brief: as §1

[44] = target: Glc(a1-6)Glc(a1-6)Glc(a1-6)Glc
Method in brief: as §1

[45] = target: Glc(b1-4)Glc
Method in brief: as §1

B1: Pwp5 ND (Candida glabrata) (protein)
chain: MGSSHHHHHHSSGLVPRGSHMASANPVPLTNVCYFPEEYPRQAGFRAITAGLASTILQGSVDELLNYSGLSSLTTQQTTTTTPNFQLPTLPLPTNVYGLTVVPLYLLVQLQGYFVPPVSGQYTFSLENTNDAAIIFFGNPSAFPCGDLSAWPQASADDITVTDGTFPSRTLFLKAGVAYPMRISYYNSLGSGNLAVSFTDPGGTKRTNWNGYIWRYNSCSTCTYT
- glycan array binding signal (z-score) [1]: -0.405
- glycan array binding signal (z-score) [2]: -0.422
- glycan array binding signal (z-score) [3]: -0.629
- glycan array binding signal (z-score) [4]: 0.183
- glycan array binding signal (z-score) [5]: -0.532
- glycan array binding signal (z-score) [6]: -0.523
- glycan array binding signal (z-score) [7]: -0.481
- glycan array binding signal (z-score) [8]: -0.167
- glycan array binding signal (z-score) [9]: -0.375
- glycan array binding signal (z-score) [10]: -0.498
- glycan array binding signal (z-score) [11]: -0.517
- glycan array binding signal (z-score) [12]: -0.162
- glycan array binding signal (z-score) [13]: -0.366
- glycan array binding signal (z-score) [14]: 0.348
- glycan array binding signal (z-score) [15]: -0.509
- glycan array binding signal (z-score) [16]: -0.508
- glycan array binding signal (z-score) [17]: -0.536
- glycan array binding signal (z-score) [18]: -0.261
- glycan array binding signal (z-score) [19]: -0.724
- glycan array binding signal (z-score) [20]: -0.301
- glycan array binding signal (z-score) [21]: -0.548
- glycan array binding signal (z-score) [22]: -0.5
- glycan array binding signal (z-score) [23]: -0.314
- glycan array binding signal (z-score) [24]: -0.528
- glycan array binding signal (z-score) [25]: -0.591
- glycan array binding signal (z-score) [26]: -0.662
- glycan array binding signal (z-score) [27]: -0.474
- glycan array binding signal (z-score) [28]: 1.6
- glycan array binding signal (z-score) [29]: 0.779
- glycan array binding signal (z-score) [30]: 1.64
- glycan array binding signal (z-score) [31]: 1.93
- glycan array binding signal (z-score) [32]: 0.84
- glycan array binding signal (z-score) [33]: -0.5
- glycan array binding signal (z-score) [34]: -0.569
- glycan array binding signal (z-score) [35]: -0.272
- glycan array binding signal (z-score) [36]: 1.89
- glycan array binding signal (z-score) [37]: 0.072
- glycan array binding signal (z-score) [38]: -0.298
- glycan array binding signal (z-score) [39]: 0.436
- glycan array binding signal (z-score) [40]: -0.426
- glycan array binding signal (z-score) [41]: -0.425
- glycan array binding signal (z-score) [42]: -0.622
- glycan array binding signal (z-score) [43]: 0.507
- glycan array binding signal (z-score) [44]: -0.62
- glycan array binding signal (z-score) [45]: -0.516
